We go through 34 variants from the RNAGym collection of RNA variant scans (doi:10.1093/nar/gkz1192).

The source gives no read counts; variants with many changes may rest on few reads.

The chains are these.
B1: CPEB3 Ribozyme (parent)
chain: UAACAGGGGGCCACAGCAGAAGCGUUCACGUCGCAGCCCCUGUCAGAUUCUGGUGAAUCUGCGAAUUCUGCUGUAUAUCUC

Variants of B1 are the subject of the series. In words: self-cleavage, relative activity (ratio to wild type); higher = more cleavage; in vitro, sequencing. The essentials: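 Relative activity compares each variant's cleaved/total read fraction with that of the unmutated ribozyme. To get these fractions, barcoded CPEB3 ribozyme libraries from rounds of error-prone PCR were transcribed with T7 RNA polymerase for 5 hours at 37°C and then given 15 min of DNase I treatment before EDTA was added. The RNAs were reverse transcribed with template switching and sequenced on Illumina, and DNA sequencing linked barcodes to variants. A minimum of 5 reads applied, and three batches were averaged.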
Turning to UAACAGGUGGCCACAGCAGAAGCGUUCUCGUCGCAGCCCCUGUCAGAUUCUGGUGAAUCUGUGAAUUCUGCUGUAUAUCUC, the self-cleavage worked out at 0.15.

As to UAACAGGUGGCCACAGCAGAAGCGUUCACGUCGCAGCCCCUGUCAGAUUCUAGUGAAUCUGCGAAUUCUGCUGUAAAUCUC, the self-cleavage was 0.38. Take UAACAGGUGGCCACAGCAGAAGCGUUCACGUGGCAGCCCCUGUCUGAUUCUGGUGAAUCUGCGAAUUCUGCUGUAUAUCUC: the self-cleavage was determined as 0.11. In the case of UAACAGGUGGCCACAGCAGAAGCGUUCACGUCGCAGUCCCUGUCAGAUUCUGGUGAAUCUGCGACCUCUGCUGUAUAUCUC, the self-cleavage stood at 0.1. Turning to UAACAGGUGGCACCAGCAGAAGCGUUCACGUCGCAGCCCCUGUAAGAUUCUGGUGAAUCUGCGAAUUCUGCUGUAUAUCUC, the self-cleavage is 0.06. Turning to UAACAGGUGGCCACAGCAGAAGCGUUCACGUCGCAGCCCCUGUCGGAUUCUGGUGAAUCUGCGGAUUCUGCUGUAUAUCUC, the self-cleavage was found to be 0.2. Turning to UAACAGGUGGCCAUAGCAGAAGCGUUCACGUCGCAGCCCCUGUCAGAUUCUGGUGAGUCUGCGAAUCCUGCUGUAUAUCUC, the self-cleavage was 0.09.

For the variant UAACAGGUGGCCACAGCAGAAGCGUUCACGUCGCAGCCCCUGUCAGAUUCUGGUGGAUCUGCGAAUUCUGCUGUAUUUCCC, the self-cleavage was determined as 0.5. For UAACAGGUGGCCACAGCAGAAGCGUUCACGGCGCAGCCCCUGACAGAUUCUGGUGAAUCUGCGAAUUCUGCUGUAUAUCUC, the self-cleavage came to 0.13. Take UAACAGGUGGCCACAGCAGAAGCGUUCACGUCGCAGCCCCUGUCAGUUUCUGGUGAAUCUGCGAAUCCUGUUGUAUACCUC: the self-cleavage was 0.05. In the case of UAACAGGUGGCCACAGCAGAAGCGUACACGUCGCAGCCCCUGUCAGAUUCCGGUGCAUCUGCGUAUUCUGCUGUAUAUCUC, the self-cleavage stood at 0.05.

Take UAACAGGUGGCCACAGCAGAAGCGCCCACGUCGCAGCCCCUGUCAGAUUCUGGUGAAUCUGCGAAUUCUGCUGUAUAUCUC: the self-cleavage was determined as 0.07. Regarding UAACAGGUGGCCACAGCAGAAGCGUUCACGUCGCAGCCCCUGUUAGGUUCUGGUGAAUCUGCGAAUUCUGACGUAUAUCUC, the self-cleavage was determined as 0.04. For UAACAGGUGGCCACAGCAGAAGCGUUCACGUCGCAGCUCCUGCCAGAUUCUGGUGAAUCUGCGAAUUCUGCAGUAUAUCUC, the self-cleavage was 0.05. For the variant UAACAGGUGGCCACAGCAGAAGCGUUCACGCCGCAGCCCCUGUCAGAUUCUGGUGAAUCAGCGAAUUCUGCUGUAUAUCUC, the self-cleavage was found to be 0.09. To UAACAGGUGGCCACAGCAGAAGCGUUCACGUCGCACCCCCAGUCAGAUUCUGGUGAACCUGCGAAUUCUGCAGUAUAUCUC belongs 0.12; to UAACAGGUUGCCACAGCUGAAGCGUUCACGUCGCAGCCCCUGUCAGAUUCUGGUGGAUCUGCGAAUUCUGCUGUAUAUCCC, 0.07. Consider UAACAGGUGGCCACAGCAGAAGUGUUCACGUCACAGCACCUGUCAGGUUCCGGUGAAUCUGCGAAUUCUGCUGUAUAUCUC, for which the self-cleavage was 0.07.

Turning to UAACAGGUGGCCACAGCAGAAGCGCUCACGUCGCGGCCUCUGUCAGAUUCUGGUGAAUCUGCGAAUUCUGCUGUAUGCCUC, the self-cleavage was found to be 0.04. As for UAACAGGUGGCCACAGCAGAAGCGUUCACGUCGCAGCCCCUGUCGGAUUCUGGUGAAUCUGCGAAUUCUGCUGUAAAUCUC, the self-cleavage came out at 0.18.

As to UAACAGGUGGCCACAGCAGAAGCGUUCACGUCGCAGCCCCUGUCUGAUACUGGUGAAUCUGCGAAUUCUGCUGUAUAUCUC, the self-cleavage is 0.12.

Consider UAACAGGUGGCCACAGCAGAAGUGUCCACGUCGCAGCCUCUGUCAGACUCUGGUGAUUCUGCGAGUUCUGCUGUAUAUCUC, for which the self-cleavage stood at 0.02.

For UAACAGGUGGCCACAGCAGAAGCGUUCACGUCGCAGCCCUUGUCAGAUACUGGUGAAUCUGCGAUUUCUGCUGUAUAUCCC, the self-cleavage was found to be 0.03. As for UAACAGGUGCCCACAGCAGAAGCGUUCACGUCGCAGCCCCUGUCAGAUCCUGGUGUAUCUGCGAUUUCUGCCGUAUAUCUA, the self-cleavage was determined as 0.05. For the variant UAACAGGUAGCCACAGCAGAAGUGUUCACGUCGCAGCCCCUGUCAGAUUCUGGUGAAUCUGCGAAUUCUGCUGUAUAUCUC, the self-cleavage came to 0.29.

For the variant UAACAGGUGGCCACAGCAGAAGCGUUCACGCCGCAGCCCCUGUCAGAUUCUGGUGAAUCUGCGAAUUCAGCUGUAUAUCUC, the self-cleavage came to 0.07.

As for UAACAGGUGGCCACAGCAGAAGCGUUCACGUCCCAGCCCCUGUCAGAUUCUAUUGAAUCGGCGAACUCUGCUGUAUAUCUC, the self-cleavage came to 0.09. Turning to UAACAGGUGGCCACAGCAGAAGCGUUCACGUCGCAGCCCCUGUCUGAUUCUGUGGAAUCUGCGAAUUCUGCUGUAUAUCUC, the self-cleavage was 0.04. As to UAACAGGUGGCCACAGCAGAAGCGUUCACGUCGCAGUCCCUGUCAGAUUCUGGUGAAUCUGCGACUUCUGCUGUAUAUCUC, the self-cleavage came to 0.05. To UAACAGGUGGCCACAGCAGAAGCGUUCUCGUCGCAGUCCCUGUCAGAUUCUGGUGAAUCUGCGAAUUCUGCUGUAUAUCUC belongs 0.06; to UAACAGGUGGCCACAGGAGGAGCGUUCACGUCGCAGCCCCUGUCAGAUUCUGGUGAAUCUGCGAAUUCUGCUGUAUAUCUC, 0.07. For the variant UAACAGGUGGCCACAGCAGAAGCGUUCACGUCGCAGCCCCCGUCAGAUUCCGGUGAAUCUGCGAGUCCUGCUGUAUAUCUC, the self-cleavage was found to be 0.05. In the case of UAACAGGUAGCCACAGCUGAAGCGUUCACGUCGCAGCCCCUGUCAGAUUCUGGUGAAUCUGCGAAUUCUGCUGUAUAUCUC, the self-cleavage turned out to be 0.3. To UAACAGGUGGCCACAGCAGAAGCGCUCACGUCGUAGCCCCUGUCAGAUUCUGGUGAAUCUGCGAAUUCUGCUGUAUAUCUC belongs 0.11.
